Test results as given in the RNAGym collection of RNA variant scans (doi:10.7554/elife.90254).
The source gives no read counts; variants with many changes may rest on few reads.

B1: OR4K15 (parent)
chain: GUUAACGGUCAUAGGCCAUGGAAACUAGGAGCACCAUUUCGCUGCCAGUGAAGAAAUGAACAAAGAAAAUCUGGGCCAGGCAGGCAUCAAAAGAAAUAGUCUUGCGCUCAACCAGAAAGUCUGUAAUCAUUUUAAGGGUA

Variants of: B1
Assay: self-cleavage, relative activity (ratio to wild type); higher = more cleavage; in vitro, sequencing; the parent is a self-cleaving ribozyme

Variant | self-cleavage
U9C A23G A111G | 0.02
U9C A23U C61U A64U A114G | 0.41
U9C A24G A36G A92G | 1.05
U9C A24G A51G | 1.68
U9C A24G A55G A66G U122C | 1.37
U9C A24G A66G C76U A96U | 0.3
U9C A24G A90U | 1.06
U9C A24G A92U U127C U133A | 0.98
U9C A24G A95G U108C | 0.02
U9C A24G A96G C112U A126G | 0.03
U9C A24G G123A | 1.28
U9C A27G A51G | 0.87
U9C A27G A64G | 1.25
U9C A27G G44U A55G | 0.34
U9C A27G U70C A98G A116U | 0.09
U9C A27U U57A | 1.67
U9C A30G A47G U131C | 1.17
U9C A30G A92G U100C | 1.53
U9C A30G A114G U127C | 0.64
U9C A30G C85A | 1.17
U9C A30G U122C | 1.31
U9C A30U A68U | 1.12
U9C A30U A69G A91U G99A | 0.46
U9C A30U U49C | 1.25

Variant | self-cleavage
U9C A33G A60U | 1.29
U9C A33G U43C A95G | 0.63
U9C A33G U43C G65U A69G U72A | 0.27
U9C A33U A64G | 2.03
U9C A33U U37C A69G A90G A116G U127C | 0.25
U9C A36G A66U A67G U70C A110G U124C | 0.06
U9C A36G A91G | 1.77
U9C A36G C40U | 1.94
U9C A36G U38C U49C C71U U130G | 0.24
U9C A36U A78G U87C U102C | 0.49
U9C A36U A96G U130C | 0.51
U9C A36U U38C | 1.95
U9C A47C A125G | 0.72
U9C A47G A116C | 0
U9C A47G U70C A91G G115A | 0.05
U9C A47U A51G | 1.15
U9C A51C A64G A96G U122C | 2.02
U9C A51G A54G A60U U108C A111G | 0.04
U9C A51G A60G C109U A116G | 0.5
U9C A51G A95G U97A | 1.5
U9C A51G U72C G137A | 0.12
U9C A51G U131C | 1.19
U9C A51U A52G A110G | 0.12
U9C A52G A67G A68G U130A | 0.97

Variant | self-cleavage
U9C A52G A111G A114G | 0
U9C A52U A59G | 1.87
U9C A54G A55G U72A U100C | 0.77
U9C A54G A55U A78G | 0.28
U9C A54G A60G U70C A89U C105U | 0.17
U9C A54G A62U | 0.55
U9C A54G A66G U127A | 2.09
U9C A54G A135C | 0.81
U9C A54G G75A G138A | 0.21
U9C A54G U72C A78U A86G | 0.08
U9C A54U A86G U103C | 0.69
U9C A54U U131C | 0.81
U9C A55G A59G G115U | 0.19
U9C A55U A118G | 0.7
U9C A55U G79A | 0.21
U9C A56G A68G A114G U122C U127C | 0.09
U9C A59G A67G A95G | 2.55
U9C A59G A117G | 0.98
U9C A59G A125G | 1.16
U9C A59G U139C | 1.51
U9C A59U A91G | 1.08
U9C A59U A116G C128U | 0.39
U9C A60G A62U U108A U132G | 0.05
U9C A60G A117U | 0.91

Variant | self-cleavage
U9C A60G C105U U132A | 0.35
U9C A60G C121U | 1.73
U9C A60G U70C | 1.32
U9C A60G U108C | 0.06
U9C A60U A94G A96U U108C U124G | 0.01
U9C A62G A69G A94G A118G A129G | 0.39
U9C A63G A111G | 0.03
U9C A63G U100A | 1.24
U9C A64G A66G A86U A111G | 0.13
U9C A64G U70C | 0.66
U9C A64G U70G C85G | 0.5
U9C A66C A82G U100C | 1.73
U9C A66G A69G U103C A116G | 0.57
U9C A66G A89C U127C | 0.96
U9C A66G A118U | 1.37
U9C A67G A68G A116G U120C | 0.8
U9C A67G U100C A118G | 1.62
U9C A67G U127C | 1.76
U9C A68G A114G | 1.68
U9C A68G A116C | 0.08
U9C A68G A118G | 0.6
U9C A68G U131C | 1.35
U9C A69G A92G U100A U120C | 0.33
U9C A69G A95G A114U A118G | 0.05

Variant | self-cleavage
U9C A69G U87C | 0.69
U9C A69U C85U A89U | 2.01
U9C A78G A96G | 0.34
U9C A82G A86U | 1.68
U9C A82U G137U | 0.45
U9C A86U A90G A118G | 0.99
U9C A89G A98G A126G U130C U131C | 0.26
U9C A89G U97G | 0.93
U9C A89G U127C | 0.73
U9C A89U A94G | 1.74
U9C A89U U131C | 1.93
U9C A90G U120A | 0.84
U9C A91G U139C | 1.5
U9C A92G U102C | 2.84
U9C A92G U102C U122A | 1.16
U9C A92G U103C | 1.13
U9C A96G A118U U130C | 0.37
U9C A114U A116G U130C | 0.01
U9C A116G A129G | 0.59
U9C C10U U108C A117U | 0.01
U9C C16A U108C A125G U127C | 0
U9C C17U A33G U43C | 0.36
U9C C25U A33G A56G A64G | 1.18
U9C C32A C85G A96G A117G U132C | 0.91

Variant | self-cleavage
U9C C40A A63U G83A A135G | 2
U9C C85U A129G | 1
U9C C88U A90G A92G U103C C105U | 0.03
U9C G14A A47U G79U A89G | 0.03
U9C G15A A27G A78G C109A U124A | 0
U9C G15A U19C U37A A60U | 1.51
U9C G28A G53A U130C | 0.61
U9C G28U A36G A94U | 1.61
U9C G29A A51G A98G | 0.49
U9C G29U A54G A68G | 0.85
U9C G31A A69U | 1.07
U9C G44A U70C A126G | 0.8
U9C G50U A52G U127A | 2.01
U9C G53A A111U | 0.06
U9C G73U A90G | 0.2
U9C G75A U127C U130A | 0.13
U9C G79A U127A U131C | 0.34
U9C U12A U38C A89G U122A U127A | 1.45
U9C U12C A23G A78G | 0.59
U9C U12C A36G A68G A86G A94G A117G | 0.55
U9C U12C A59U A92G A94G | 1.47
U9C U12C A91U | 1.54
U9C U12C U49C A118G U130C A135U | 0.74
U9C U12G A68G U87C | 1.52

Variant | self-cleavage
U9C U19C A23G A69G A91G | 0.96
U9C U19C A82G | 0.62
U9C U19C U43A A67G U100C | 2.07
U9C U26C U39C A56G A94G | 0.7
U9C U26C U57C A67G A68G A86U | 0.83
U9C U37A A68G A78G | 0.53
U9C U37C A67G U139A | 0.43
U9C U37C A92U U130C | 1.95
U9C U37C A94G U132C | 1.69
U9C U37C U57C G74U A98G U108C | 0.01
U9C U37C U57G | 1.97
U9C U38C A47G A116G | 0.62
U9C U38C U70C U72A | 0.64
U9C U39A A55G A64G | 1.93
U9C U39A A62G U139C | 1.13
U9C U39A G80A C113G A129G | 0
U9C U39C A47G | 1.34
U9C U39C A47G A117U | 1.19
U9C U39G U70A | 0.2
U9C U43A G104C | 0.03
U9C U43C A47C | 0.93
U9C U43C A59U A62G | 1.21
U9C U43C A90G C109U | 0.54
